# Measurements from the BET-seq Pho4 binding data (Le et al. 2018).
# This is one part of the list. Values were computed here from the reads of four pooled replicates and scatter widely.
# Biological target: T1, Pho4 (S. cerevisiae) (UniProt P07270)
# T1 sequence: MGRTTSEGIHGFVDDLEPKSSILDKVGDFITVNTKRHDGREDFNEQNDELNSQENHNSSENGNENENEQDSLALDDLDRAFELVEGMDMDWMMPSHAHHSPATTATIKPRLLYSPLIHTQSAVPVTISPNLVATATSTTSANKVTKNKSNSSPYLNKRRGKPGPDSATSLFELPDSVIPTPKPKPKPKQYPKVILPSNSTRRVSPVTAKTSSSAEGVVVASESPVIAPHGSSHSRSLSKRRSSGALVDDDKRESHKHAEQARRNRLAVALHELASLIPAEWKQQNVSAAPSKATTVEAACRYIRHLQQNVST
# Assay: relative binding free energy (BET-seq); higher = weaker binding
# Settings: reference: library average
row,Sequence,relative binding free energy
1,CGGTTCACGTGTTTGT,0.3 kcal/mol
2,TCGGGCACGTGGCGTT,-0.22 kcal/mol
3,GGTAACACGTGGTAGG,-0.16 kcal/mol
4,TACTTCACGTGAGGAT,0.43 kcal/mol
5,TTTATCACGTGGCGTT,0.15 kcal/mol
6,ATTGACACGTGGGCGT,-0.11 kcal/mol
7,AGCGGCACGTGGGGGT,-0.17 kcal/mol
8,CGTTTCACGTGGGAGC,0.23 kcal/mol
9,TTATCCACGTGTTATT,-0.08 kcal/mol
10,TTAATCACGTGTGGCG,0.2 kcal/mol
11,AAATACACGTGTGGGC,0.24 kcal/mol
12,TCCGTCACGTGTGGGT,0.06 kcal/mol
13,TGATGCACGTGGTGGA,0.06 kcal/mol
14,ATTCACACGTGAAGTG,0.29 kcal/mol
15,CCTGGCACGTGTGAGT,0.03 kcal/mol
16,GTCGACACGTGGGGAT,-0.08 kcal/mol
17,TATTGCACGTGTTGAT,0.02 kcal/mol
18,TTTTCCACGTGGCTGT,0.06 kcal/mol
19,GGTTACACGTGTTTGG,0.2 kcal/mol
20,CAGGTCACGTGGTTTG,0.15 kcal/mol
21,TAGGGCACGTGATCGT,-0.21 kcal/mol
22,TGGTCCACGTGGCGGG,0.01 kcal/mol
23,GGTGACACGTGCTCGG,0.03 kcal/mol

row,Sequence,relative binding free energy
1,TGTCTCACGTGGAAGT,0.35 kcal/mol
2,GTGATCACGTGTTACG,0.17 kcal/mol
3,GCGGTCACGTGGCGTT,0.07 kcal/mol
4,AGCTTCACGTGGGAGA,0.23 kcal/mol
5,TCGGGCACGTGTGTTC,-0.16 kcal/mol
6,AAGGGCACGTGGTTTG,-0.12 kcal/mol
7,TACGTCACGTGGCTTT,0.08 kcal/mol
8,ATGGGCACGTGATCGA,-0.05 kcal/mol
9,GTGTTCACGTGAGCGA,0.19 kcal/mol
10,TCGGTCACGTGCGTGG,0.08 kcal/mol
11,GGATTCACGTGTGCGG,0.27 kcal/mol
12,AGGTGCACGTGGTGCC,-0.25 kcal/mol
13,AGTTTCACGTGGGGCG,0.16 kcal/mol
14,GGGGTCACGTGTCCAG,0.06 kcal/mol
15,TGAGTCACGTGATCGG,0.1 kcal/mol
16,AGAGGCACGTGGTCTT,-0.13 kcal/mol
17,AGGTGCACGTGTTGCA,0.04 kcal/mol
18,GTGTACACGTGTTGAT,0.14 kcal/mol
19,GGATGCACGTGAAATT,0.14 kcal/mol
20,CGGGGCACGTGTGTGT,-0.14 kcal/mol
21,GAGTACACGTGCAGGT,0.23 kcal/mol
22,GGGTTCACGTGATGGT,0.37 kcal/mol
23,GCATGCACGTGTGATG,0.05 kcal/mol

row,Sequence,relative binding free energy
1,TGGGTCACGTGTTGAA,0.11 kcal/mol
2,GCTGTCACGTGTTGGG,0.1 kcal/mol
3,AGTGACACGTGAGTCG,0.23 kcal/mol
4,TAATTCACGTGGTCGG,0.09 kcal/mol
5,GGTGACACGTGTTTGT,0.04 kcal/mol
6,TAGTTCACGTGTATGG,0.28 kcal/mol
7,ACGGACACGTGGTAGG,-0.01 kcal/mol
8,TTTTGCACGTGATGTG,0.11 kcal/mol
9,CTGTACACGTGGTGGC,0.06 kcal/mol
10,TGTGTCACGTGAGGCC,0.25 kcal/mol
11,GATTCCACGTGGTGAT,0.16 kcal/mol
12,TGTCACACGTGAGGAT,0.26 kcal/mol
13,TGATGCACGTGTCCGG,-0.11 kcal/mol
14,AATGTCACGTGCTTTG,-0.04 kcal/mol
15,CGGTACACGTGAATGG,0.29 kcal/mol
16,CTGGTCACGTGGGTGA,0.05 kcal/mol
17,GGTGTCACGTGAATTG,0.24 kcal/mol
18,AATACCACGTGTGGTT,-0.06 kcal/mol
19,TTTGGCACGTGAACAG,0.19 kcal/mol
20,AGGTTCACGTGTCCTT,0.36 kcal/mol
21,TGATACACGTGATATT,0.2 kcal/mol
22,GGGGACACGTGTGGTA,0.16 kcal/mol
23,AGGGGCACGTGTAAGT,0.09 kcal/mol

row,Sequence,relative binding free energy
1,GTGAGCACGTGGTTGT,-0.09 kcal/mol
2,TGGGGCACGTGTTATC,-0.04 kcal/mol
3,CAAGTCACGTGTTTGG,0.15 kcal/mol
4,CGGCCCACGTGGGGTG,-0.24 kcal/mol
5,CGGCGCACGTGGAGGT,-0.16 kcal/mol
6,CGGTGCACGTGGGACG,-0.24 kcal/mol
7,TGGGCCACGTGCCGGA,-0.05 kcal/mol
8,ATTTGCACGTGTTATG,0 kcal/mol
9,AGGATCACGTGTATGT,0.18 kcal/mol
10,GTCTTCACGTGGTTCG,0.34 kcal/mol
11,TGCTTCACGTGTGTCT,0.19 kcal/mol
12,CGATGCACGTGTTTGG,-0.1 kcal/mol
13,GGAGTCACGTGCAGGA,0.18 kcal/mol
14,GTGAGCACGTGCCTGG,-0.06 kcal/mol
15,GTATACACGTGGTCTG,-0.07 kcal/mol
16,GTGTCCACGTGGTTAA,-0.03 kcal/mol
17,TGCGACACGTGCTAGG,0.13 kcal/mol
18,AGTTTCACGTGGTAGG,0.26 kcal/mol
19,ATGTGCACGTGGTTTA,-0.1 kcal/mol
20,TAAGTCACGTGGGTAC,0.02 kcal/mol
21,TAAGTCACGTGTGGGC,0.1 kcal/mol
22,GAAGACACGTGAAGTG,0.33 kcal/mol
23,AGGGCCACGTGGGCGT,-0.42 kcal/mol

row,Sequence,relative binding free energy
1,AATGACACGTGCGGTG,-0.05 kcal/mol
2,TTGACCACGTGAGTGG,0.12 kcal/mol
3,GGTTTCACGTGGTTCT,0.28 kcal/mol
4,TAGTCCACGTGGTGTC,0.06 kcal/mol
5,GTATTCACGTGAGCTG,0.44 kcal/mol
6,ATTAGCACGTGTAGTG,0 kcal/mol
7,TGGAGCACGTGTGAAT,0.2 kcal/mol
8,TGCGTCACGTGCTGGA,0.07 kcal/mol
9,GCTATCACGTGGTTGG,0.12 kcal/mol
10,CTAGGCACGTGTGTGT,-0.12 kcal/mol
11,TGCAGCACGTGGGTTG,-0.12 kcal/mol
12,TATGACACGTGTTGCT,-0.03 kcal/mol
13,TAGAACACGTGTATGT,-0.02 kcal/mol
14,TGGGGCACGTGGCTTA,-0.06 kcal/mol
15,TGTGTCACGTGAGCAA,0.12 kcal/mol
16,GATGACACGTGTTGGT,0.11 kcal/mol
17,GGAGTCACGTGGTGTG,0.07 kcal/mol
18,TTTATCACGTGAAGGC,0.3 kcal/mol
19,ATGAGCACGTGAGGTG,0.07 kcal/mol
20,CGGTACACGTGTATTA,0.07 kcal/mol
21,TTGTGCACGTGGCTCT,-0.08 kcal/mol
22,GTTGTCACGTGCGAAT,0.03 kcal/mol
23,AGGAGCACGTGCAGGT,-0.14 kcal/mol
